The text below walks through data of PubChem BioAssay (NCI).

SMILES strings stand for the structures. Several values for one entry are separate records, joined by “and”; a condition that tells them apart may be missing. Identical values can stand only once.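 Dose response: 5 concentrations. Exposure: 48 h. Format: 96-well plates. Endpoint: linear interpolation; highest concentration if not reached. Abbreviation: GI50, concentration required for 50% inhibition of growth. At the TGI there is no net growth.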

This assay has as its system NCI-H322M lung. Kind of assay: NCI anticancer screen, dose series, 48 h.
With `Cc1ccc(C2SCc3nc4ccc(C(=O)c5ccccc5)cc4n32)cc1` (centres undefined), the GI50 was 16.4 µM and the TGI came to 38.5 µM. Compound `O=C(CSCC(=O)N/N=C/c1cccc(OCc2ccccc2)c1)N/N=C/c1cccc(OCc2ccccc2)c1` displayed a TGI of over 100 µM. Still for that read-out and setting: in the case of `Cn1cnc2c(OCC3CCCCC3)nc(N)nc21` it was over 100 µM. Still for that read-out and setting: in the case of `COc1ccc2c(c1)N(C(C)=O)CN1C(=O)CCC21` (centres undefined) it was over 100 µM. The same measure, in the same setting: in the case of `Cc1c(C2Cc3ccccc3N2C(=O)/C=C\C(=O)O)c2ccccc2n1C` (centres undefined) it was 56.7 µM; in that of `COc1ccc(/C(Cl)=C(\C=O)c2ccc(OC)c(OC)c2)cc1OC`, over 100 µM. `O=C(O)c1ccc(S(=O)(=O)N=Nc2c(O)[nH]c3ccccc23)cc1` returned a TGI of over 100 µM.

With `CCOC(OCC)c1ccc(/C=C/c2cc(OC)c(OC)c(OC)c2)cc1`, the TGI was over 100 µM.

As to `CC1CCC2C(C)C3C(CC4C5CC=C6CC(OC7OC(CO)C(O)C(OC8OC(CO)C(O)C(O)C8O)C7OC7OC(C)C(O)C(O)C7O)CCC6(C)C5CCC43C)N2C1` (centres undefined), the GI50 was over 2.5 µg/mL; the TGI was 29 µM and > 2.5 µg/mL. `Cc1ncc(CO)c(CN)c1O`: the TGI is over 100 µM. On the same count and under the same terms, in the case of `C=CCNC(=O)/C(Cc1cc(Br)c(OC)c(Br)c1O)=N\O` it was 34.4 µM. On the same count and under the same terms, as for `CCOC(=O)c1c2c(c(O)c3ccccc3c(O)n(-c3ccc(C)cc3)c1C)C(=O)C=CC2=O`, the figure is 57 µM. Same read-out and setting: as for `CN(C)c1ccc(/C=C2\N=C(N/N=C/c3ccccc3)NC2=O)cc1`, the figure is over 100 µM; as for `CC(=O)O[C@H]1C(=O)[C@@]2(C)[C@H]([C@H](OC(=O)c3ccc([N+](=O)[O-])cc3)[C@]3(O)C[C@H](OC(=O)[C@H](O)[C@@H](NC(=O)c4ccccc4)c4ccccc4)C(C)=C1C3(C)C)[C@]1(OC(C)=O)CO[C@@H]1C[C@@H]2O`, over 25 µM. Compound `CN(C)c1ccc(C2CC(=O)C(C#N)=C(c3ccccc3)NN2C)cc1` (centres undefined) yielded a TGI of over 100 µM. Still for that read-out and setting: as for `O=C(/C=C/c1c(O)ccc2ccccc12)c1cccc2ccccc12`, the figure is over 100 µM; as for `Cc1ccc(S(=O)(=O)NC(=O)NCC(=O)NCC(=O)O)cc1`, over 100 µM.

Turning to `COC(=O)[C@@H](Cc1c[nH]c2ccccc12)NC(=O)/C=C/c1ccccc1`, the GI50 was 9.11 µM and the TGI was over 100 µM. For `CCCCCCCCCCCCOC1C(C(COC2OC(C(O)CN3CCCCC3)C3OC(C)(C)OC23)NC(=O)Nc2ccccc2)OC2OC(C)(C)OC21` (centres undefined), the GI50 was 13.4 µM and the TGI turned out to be 32.4 µM. As to `O=C(O)C(Br)C(Br)c1ccccc1[N+](=O)[O-]` (centres undefined), the TGI is over 100 µM.

The compound `O=C(CCc1ccccc1)On1nnc2ccccc2c1=O` showed a TGI of over 100 µM.

Compound `COc1ccc(-c2onc(-c3c(C)cc(C)cc3C)c2C2=NCCCN2)cc1` yielded a TGI of over 100 µM. In the case of `O=[N+]([O-])/C(Cl)=C(\Nc1ccccc1)C(Cl)=C(Cl)Cl`, the TGI was over 100 µM.

In turn, `NC(=O)c1csc(CCCCCCc2nc(C(N)=O)cs2)n1` showed a TGI of over 100 µM. Compound `N#CCC(=O)N/N=C1/C(=O)NC(=O)C(=O)C1c1nc2ccccc2s1` (centres undefined) registered a TGI of over 100 µM.

The compound `O=C(CCC(=O)N/N=C/c1ccccc1O)N/N=C/c1ccccc1O` displayed a TGI of over 100 µM. Turning to `O=c1cc(NCC2CCCCC2)[nH]c(=O)[nH]1`, the TGI was over 100 µM.

In the case of `CCCCOP(=O)(OCCCC)/C(C#N)=C/c1ccco1`, the TGI is over 100 µM.

Compound `COc1ccc2nc3cc([N+](=O)[O-])ccc3c(NNc3ccc(Cl)cc3)c2c1` yielded a TGI of over 100 µM.

`CCN(CC)Cc1ccc2cccnc2c1O` yielded a TGI of over 100 µM. Still for that read-out and setting: in the case of `CCCC(=O)N/S(=N/S(=O)(=O)c1ccc(Cl)cc1)C(Cl)(Cl)Cl` (centres undefined) it was over 100 µM; in that of `CCCCSCc1nc2nc(Cl)c(Cl)nc2[nH]1`, 86.1 µM.

As for `Cc1c2ccnc(-c3ccccc3)c2cc2c1[nH]c1ccccc12`, the TGI amounted to 11.5 µM. Turning to `O=C(O)c1ccc(N=Nc2cc(S(=O)(=O)O)c3cccnc3c2O)cc1`, the TGI was over 100 µM. Regarding `Oc1cc(O)cc(/C=C/c2ccc(O)c(O)c2)c1`, the TGI is over 100 µM. Still for that read-out and setting: as for `Cc1cc(NC(=O)C(=O)Cc2cnc3ccccc3n2)c(S(=O)(=O)O)cc1Cl`, the figure is over 100 µM. On the same count and under the same terms, in the case of `CN(C)c1ccc2nc3c(C(=O)O)cc(=O)c(O)c-3oc2c1` it was over 100 µM. For `CC(F)(F)c1cc(F)ccc1-c1sc2cc(O)ccc2c1Oc1ccc(/C=C/C(=O)O)cc1`, the GI50 was 13.1 µM and the TGI was 26.3 µM.

Regarding `Cc1ccc(C)c(/C(=N\N=C(N)N)C2CC2)c1`, the TGI is over 100 µM.

The compound `COc1cc(/C=C2/SC(c3ccccc3)N(c3ccc(Cl)cc3)C2=O)cc(OC)c1OC` (centres undefined) had a TGI of over 100 µM.

As for `O=C1C(Cl)=C(Nc2cccc(C(F)(F)F)c2)C(=O)N1Cc1ccccc1Cl`, the GI50 is 15.5 µM and the TGI stood at 35.9 µM. In turn, `NC12CC3CC(C1)CC(Cl)(C3)C2` came in with a TGI of over 100 µM. Consider `O=C1SC(c2ccc(Cl)cc2)(c2ccc(Cl)cc2)c2ccccc21`, for which the TGI was over 100 µM. On the same count and under the same terms, in the case of `CC1=CC2(O)OC3(CC2=C(C)C)C(C)CCC13` (centres undefined) it was over 100 µM.

Regarding `CCCC(=O)NC(c1ccc2c(c1)OCO2)c1ccc2cccnc2c1O` (centres undefined), the GI50 is 0.6 µM and the TGI is over 100 µM.

As for `COc1ccc(/C=C/c2nc(=S)[nH][nH]2)cc1`, the TGI is over 100 µM. Still for that read-out and setting: in the case of `C[n+]1cccc(/C=C/c2ccc3cccc(O)c3n2)c1` it was over 100 µM. On the same count and under the same terms, as for `CC(=O)NCC1(c2ccccc2)CCN(CC2COc3ccccc3O2)CC1` (centres undefined), the figure is over 100 µM.

For the compound `O=C(c1ccco1)c1c(C(F)(F)F)nc2cc(C(F)(F)F)ccc2[n+]1[O-]`, the GI50 was 79.2 µM and the TGI is over 100 µM. For `O=C1Nc2ccccc2[C@]12C[C@H]2c1ccccn1`, the TGI was over 100 µM.

Regarding `Cc1cn(CC2=NCC(C)(C)CN2)c(=O)[nH]c1=O`, the TGI is over 100 µM. The same measure, in the same setting: as for `Cn1cnc([N+](=O)[O-])c1SCC(=O)O`, the figure is over 100 µM; as for `CC1=Nc2c([nH]c(=S)[nH]c2=O)NC(c2ccc(Cl)c(Cl)c2)C1` (centres undefined), over 100 µM. In the case of `COC(=O)C(/C(=N/N)C(=O)Nc1cc(Cl)c(Cl)cc1Cl)c1nc2ccc(Cl)cc2[nH]c1=O` (centres undefined), the TGI was over 100 µM. For the compound `Oc1ccc(/C=N/Nc2nc3ccccc3s2)c(O)c1`, the GI50 is 1.18 µM and the TGI was 6.09 µM. Take `COc1cc2c(cc1OC)C(Cl)C(c1ccc(Cl)cc1)=C2Cl` (centres undefined): the TGI came out at 41.9 µM. The compound `Cc1ccc(S(=O)(=O)[N-]C2C(=O)c3ccccc3C(=O)C2[n+]2cccc(C(N)=O)c2)cc1` (centres undefined) gave a TGI of over 100 µM. For the compound `CC1=NN2C(=O)CC(=O)N=C2S1`, the TGI is over 100 µM. The compound `C/C(=N\NC(=O)/C(C#N)=C\c1ccc(N(CCC#N)CCC#N)cc1)c1ccccc1` gave a TGI of over 10 µM. As to `CC(=O)OC1OC2C(NC(=O)OC(C)(C)C)C1CC2(OCc1ccccc1)OCc1ccccc1` (centres undefined), the TGI was over 100 µM. On the same count and under the same terms, in the case of `COc1ccc(OC)c(NC(=O)C(=O)Nn2c(=S)[nH]c3ccccc3c2=O)c1` it was over 100 µM; in that of `Cn1cc2c(=O)n3ncn(-c4ccc(Br)cc4)c3nc2n1`, over 100 µM. On to `C[C@@H]1CC[C@H]2C(COC/C=C/COCC3=C(C(F)(F)F)O[C@@H]4O[C@@]5(C)CC[C@H]6[C@H](C)CC[C@@H]3[C@@]46OO5)=C(C(F)(F)F)O[C@@H]3O[C@@]4(C)CC[C@@H]1[C@]32OO4`, for which the GI50 was 4.63 µM and the TGI was over 100 µM. Regarding `CCOC(=O)CC1=NC(=Nc2cc(Cl)ccc2Cl)SC1`, the TGI was over 100 µM.
